These results are taken from paper PMC5283832, “SUMOylation of NaV1.2 channels mediates the early response to acute hypoxia in central neurons” (eLife, 2016).

In this assay the target is T1, CFP-NaV1.2 (rat).
T1 construct: Rat voltage-gated sodium channel NaV1.2 pore-forming α-subunit; also called rat NaV1.2 α-subunit; SCN2a; source: CHO-K1 cells, transfected (Lipofectamine 2000), in live cells; not shown: CFP, N-terminal, kept
Put plainly: single-particle two-colour TIRF microscopy with counting of photobleaching steps; live CHO cells co-expressing CFP-tagged channel, mCherry-SUMO1 and β1; ambient O2, hypoxia and recovery; room temperature. As to conditions: partners not purified.

B1: mCherry-SUMO1 (natural protein)
chain: not shown
notes: Human SUMO1, printed as SUMO1_(101): the 101-residue form, of which the mature form is SUMO1_(97) ending in Gly-Gly; The association with NaV1.2 is a covalent linkage (SUMOylation) to Lys38; also called m-SUMO1; mSUMO1; source: CHO-K1 cells, transfected, in live cells; not shown: mCherry, N-terminal, kept
Consider B1, for which the “stoichiometry N” value is 1 SUMO1: NaV1.2.
